# Whole data set: some 81,000 sequences, median “one-hybrid fitness for binding NBS DNA” near -0.1, cut for the highest 2% near 0.36. This is one part of the list.
# B1: Caulobacter ParB omega fusion; a variant is named by its letters at X, in order, B8GW30 (parent)
# chain: MESVVVGEPGMSEGRRGLGRGLSALLGEVDAAPAQAPGEQLGGSREAPIEILQRNPDQPRRTFREEDLEDLSNSIREKGVLQPILVRPSPDTAGEYQIVAGERAWRAAQRAGLKTVPIMVRELDDLAVLEIGIIENVQRADLNVLEEALSYKVLMEKFERTQENIAQTIGKSXSHVANXMRLLXLPDEVQSYLVSGELTAXHARAIAAAADPVALAKQIIEGGLSVRETEALARKAPNLSAGKSKGGRPPRVKDTDTQALESDLSSVLGLDVSIDHRGSTGTLTITYATLEQLDDLCNRLTRGI
# Variants of: B1
# Experiment: one-hybrid fitness for binding NBS DNA (the Noc-binding site; scaled: cognate 1, non-cognate 0); higher = stronger binding
# Settings: with NBS DNA site
# How it was run: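 Caulobacter ParB libraries with four specificity codons randomised were screened by bacterial one-hybrid selection in the E. coli USO strain, using a HIS3 reporter whose site lies 19 bp from the promoter. Selection ran for 48 hours at 37°C on M9 lacking histidine, with 0.1 mM IPTG and 5 mM 3-AT. Plasmids were Illumina-sequenced before and after selection, three replicate libraries were pooled, and variants with under 10 reads were dropped. Fitness is the log change in each variant's read ratio to wild type, rescaled against the cognate and non-cognate sites.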
row,Variant,one-hybrid fitness for binding NBS DNA
1,RSLK,≤ 0.2
2,VRKK,≤ 0.2
3,MKPK,≤ 0.2
4,RIKY,0.246
5,SAAL,≤ 0.2
6,AQCP,≤ 0.2
7,YRCG,≤ 0.2
8,APYG,≤ 0.2
9,RHRW,≤ 0.2
10,LPAN,≤ 0.2
11,TKWV,≤ 0.2
12,HRDV,≤ 0.2
13,QFPV,≤ 0.2
14,WTSM,≤ 0.2
15,VSVI,≤ 0.2
16,CNRA,≤ 0.2
17,IRST,0.268
18,VSHI,≤ 0.2
19,PEFR,≤ 0.2
20,QWYV,≤ 0.2
21,CFVC,≤ 0.2
22,HWRF,≤ 0.2
23,YLPL,≤ 0.2
24,EALS,≤ 0.2

row,Variant,one-hybrid fitness for binding NBS DNA
1,LSTG,≤ 0.2
2,ILTK,≤ 0.2
3,ADMR,≤ 0.2
4,MCRN,≤ 0.2
5,AINS,≤ 0.2
6,CGRK,≤ 0.2
7,HDTC,≤ 0.2
8,DRLT,≤ 0.2
9,RKAP,≤ 0.2
10,KEQC,≤ 0.2
11,GYWR,≤ 0.2
12,AVES,≤ 0.2
13,ATNW,≤ 0.2
14,NNNI,≤ 0.2
15,NLLS,≤ 0.2
16,ENHY,≤ 0.2
17,LVCG,≤ 0.2
18,YKPG,≤ 0.2
19,SYIW,≤ 0.2
20,QQER,0.426
21,TVYY,≤ 0.2
22,KVFL,≤ 0.2
23,LLYN,≤ 0.2
24,WDHW,≤ 0.2

row,Variant,one-hybrid fitness for binding NBS DNA
1,AQIS,≤ 0.2
2,LVKS,≤ 0.2
3,VFPV,≤ 0.2
4,RNKI,≤ 0.2
5,NMDR,≤ 0.2
6,LRSC,≤ 0.2
7,GPTV,≤ 0.2
8,HFRL,≤ 0.2
9,SVVI,≤ 0.2
10,NPTR,≤ 0.2
11,YKQG,≤ 0.2
12,EMRM,≤ 0.2
13,TVNF,≤ 0.2
14,ANSE,≤ 0.2
15,IHVK,≤ 0.2
16,KASG,≤ 0.2
17,CKDC,≤ 0.2
18,RWLL,≤ 0.2
19,APCT,≤ 0.2
20,FLHS,≤ 0.2
21,TKHD,≤ 0.2
22,PLLN,≤ 0.2
23,TAKL,≤ 0.2
24,TCEM,≤ 0.2

row,Variant,one-hybrid fitness for binding NBS DNA
1,RPNV,≤ 0.2
2,NANC,≤ 0.2
3,CHIT,≤ 0.2
4,SDKF,≤ 0.2
5,YSNV,≤ 0.2
6,VADD,≤ 0.2
7,HMAR,≤ 0.2
8,LIDS,≤ 0.2
9,RWGY,≤ 0.2
10,YYYV,≤ 0.2
11,EHTC,≤ 0.2
12,SYFF,≤ 0.2
13,QMDM,≤ 0.2
14,RVNL,≤ 0.2
15,YDTF,≤ 0.2
16,WPGR,≤ 0.2
17,KNPM,≤ 0.2
18,SAKW,≤ 0.2
19,QTTH,0.385
20,RVFN,≤ 0.2
21,EFTA,≤ 0.2
22,MPMV,≤ 0.2
23,QEPH,≤ 0.2
24,SSLV,≤ 0.2

row,Variant,one-hybrid fitness for binding NBS DNA
1,HYVI,≤ 0.2
2,MRRC,≤ 0.2
3,QIKV,0.267
4,SNIC,≤ 0.2
5,PDQC,≤ 0.2
6,MLGS,≤ 0.2
7,SGYG,≤ 0.2
8,ALAI,≤ 0.2
9,NTKA,≤ 0.2
10,VVCR,≤ 0.2
11,HDNS,≤ 0.2
12,PYMM,≤ 0.2
13,SSNE,≤ 0.2
14,PPFP,≤ 0.2
15,MKYC,≤ 0.2
16,GPAK,≤ 0.2
17,VPSR,≤ 0.2
18,GIPS,≤ 0.2
19,SGKE,≤ 0.2
20,NPIY,≤ 0.2
21,WSHS,≤ 0.2
22,TSTG,≤ 0.2
23,DSMC,≤ 0.2
24,RCFN,≤ 0.2

row,Variant,one-hybrid fitness for binding NBS DNA
1,VYTS,≤ 0.2
2,SNTV,≤ 0.2
3,PRVE,≤ 0.2
4,TNVY,≤ 0.2
5,MRTT,≤ 0.2
6,SWKK,≤ 0.2
7,STCE,≤ 0.2
8,AKVE,≤ 0.2
9,QRYS,0.646
10,DHFS,≤ 0.2
11,ASNR,≤ 0.2
12,YILT,≤ 0.2
13,DSSR,≤ 0.2
14,AYTD,≤ 0.2
15,GTKG,≤ 0.2
16,MAWR,≤ 0.2
17,RPFM,≤ 0.2
18,ILMW,≤ 0.2
19,NGNH,≤ 0.2
20,RVRL,≤ 0.2
21,AQEW,≤ 0.2
22,PLLK,≤ 0.2
23,SRKF,≤ 0.2
24,REHM,≤ 0.2

row,Variant,one-hybrid fitness for binding NBS DNA
1,ASVG,≤ 0.2
2,PLMC,≤ 0.2
3,DMSL,≤ 0.2
4,ANSI,≤ 0.2
5,ARNL,≤ 0.2
6,KAFV,≤ 0.2
7,NPIV,≤ 0.2
8,HAFR,≤ 0.2
9,VIMI,≤ 0.2
10,QVGT,0.338
11,QHWY,≤ 0.2
12,MPQH,≤ 0.2
13,EDTG,≤ 0.2
14,TTEP,≤ 0.2
15,RWHW,≤ 0.2
16,AHAR,≤ 0.2
17,NGHK,≤ 0.2
18,WVMS,≤ 0.2
19,ARIG,≤ 0.2
20,APET,≤ 0.2
21,KRHR,0.616
22,PIWY,≤ 0.2
23,IIPI,≤ 0.2
24,LITH,≤ 0.2

row,Variant,one-hybrid fitness for binding NBS DNA
1,WAPH,≤ 0.2
2,LIYP,≤ 0.2
3,HTPF,≤ 0.2
4,KWSV,≤ 0.2
5,HNIS,≤ 0.2
6,WVYG,≤ 0.2
7,SSDA,≤ 0.2
8,RCIY,≤ 0.2
9,FLGA,≤ 0.2
10,SCSR,≤ 0.2
11,MYMW,≤ 0.2
12,HFNA,≤ 0.2
13,DLIR,≤ 0.2
14,KNQR,≤ 0.2
15,HQKI,≤ 0.2
16,NRTT,≤ 0.2
17,LSDC,≤ 0.2
18,SRRR,0.281
19,NCES,≤ 0.2
20,HDWS,≤ 0.2
21,YWPR,≤ 0.2
22,PRGS,≤ 0.2
23,HHLE,≤ 0.2
24,LRMY,≤ 0.2

row,Variant,one-hybrid fitness for binding NBS DNA
1,SVDW,≤ 0.2
2,QTGS,0.557
3,CNTH,≤ 0.2
4,PPKH,≤ 0.2
5,PSQY,≤ 0.2
6,QWMS,≤ 0.2
7,AINT,≤ 0.2
8,KHAG,≤ 0.2
9,SSPE,≤ 0.2
10,LAWG,≤ 0.2
11,HEAE,≤ 0.2
12,YILQ,≤ 0.2
13,QLWL,≤ 0.2
14,RGPD,≤ 0.2
15,QLLM,≤ 0.2
16,VDTR,≤ 0.2
17,ACVV,≤ 0.2
18,FFSG,≤ 0.2
19,HEDV,≤ 0.2
20,QHGR,0.546
21,TAQY,≤ 0.2
22,HVYD,≤ 0.2
23,ARRK,≤ 0.2
24,IANI,≤ 0.2

row,Variant,one-hybrid fitness for binding NBS DNA
1,EHGS,≤ 0.2
2,AAFV,≤ 0.2
3,ESTR,≤ 0.2
4,RWEE,≤ 0.2
5,ENAL,≤ 0.2
6,MQLS,≤ 0.2
7,NVSE,≤ 0.2
8,FSTV,≤ 0.2
9,LAPN,≤ 0.2
10,YQTG,≤ 0.2
11,YNMT,≤ 0.2
12,WISV,≤ 0.2
13,DNPF,≤ 0.2
14,RMHY,≤ 0.2
15,LSIS,≤ 0.2
16,WKIM,≤ 0.2
17,AGFA,≤ 0.2
18,DKSS,≤ 0.2
19,RQRS,0.6
20,GHPD,≤ 0.2
21,KRQI,≤ 0.2
22,FTKS,≤ 0.2
23,DDWY,≤ 0.2
24,VFHC,≤ 0.2

row,Variant,one-hybrid fitness for binding NBS DNA
1,RIYM,≤ 0.2
2,NWPF,≤ 0.2
3,NLTL,≤ 0.2
4,ASLT,≤ 0.2
5,GAQC,≤ 0.2
6,GLTF,≤ 0.2
7,RICW,≤ 0.2
8,RHMR,0.368
9,YCKT,≤ 0.2
10,EEKR,≤ 0.2
11,RVVC,≤ 0.2
12,TKRM,≤ 0.2
13,RIPK,≤ 0.2
14,QDAY,≤ 0.2
15,YPWT,≤ 0.2
16,RMGG,≤ 0.2
17,KLLL,≤ 0.2
18,MQIT,≤ 0.2
19,VRGS,≤ 0.2
20,QNYG,≤ 0.2
21,LIIH,≤ 0.2
22,SFHS,≤ 0.2
23,RSKA,0.343
24,GPWR,≤ 0.2

row,Variant,one-hybrid fitness for binding NBS DNA
1,DSLV,≤ 0.2
2,CNPG,≤ 0.2
3,PPKT,≤ 0.2
4,PHPT,≤ 0.2
5,GTMC,≤ 0.2
6,QEVD,≤ 0.2
7,TTWI,≤ 0.2
8,FHFL,≤ 0.2
9,REVG,≤ 0.2
10,DAND,≤ 0.2
11,FCFS,≤ 0.2
12,TQDG,≤ 0.2
13,HVPE,≤ 0.2
14,KVHT,≤ 0.2
15,LFER,≤ 0.2
16,ACRV,≤ 0.2
17,CKAR,≤ 0.2
18,TFHQ,≤ 0.2
19,GWIP,≤ 0.2
20,CRKC,≤ 0.2
21,SIIL,≤ 0.2
22,QQAF,≤ 0.2
23,CDRR,≤ 0.2
24,CPLQ,≤ 0.2

row,Variant,one-hybrid fitness for binding NBS DNA
1,LDPS,≤ 0.2
2,PLKH,≤ 0.2
3,GAVW,≤ 0.2
4,WTPG,≤ 0.2
5,RCNM,≤ 0.2
6,DYKT,≤ 0.2
7,QYHF,≤ 0.2
8,WNVE,≤ 0.2
9,SQPG,≤ 0.2
10,QATG,≤ 0.2
11,GFQR,≤ 0.2
12,EYKV,≤ 0.2
13,TDCG,≤ 0.2
14,RYNQ,≤ 0.2
15,STGT,≤ 0.2
16,LGNW,≤ 0.2
17,HCRR,0.227
18,VMQT,≤ 0.2

# Reference: a collection of fitness landscapes (doi:10.1016/j.celrep.2020.107928)
